# From the BET-seq Pho4 binding data (Le et al. 2018)
# The list shows a part of the results. These are noisy estimates, calculated here from bound and input reads.
# Molecular target: T1, Pho4 (S. cerevisiae) (UniProt P07270)
# T1 sequence: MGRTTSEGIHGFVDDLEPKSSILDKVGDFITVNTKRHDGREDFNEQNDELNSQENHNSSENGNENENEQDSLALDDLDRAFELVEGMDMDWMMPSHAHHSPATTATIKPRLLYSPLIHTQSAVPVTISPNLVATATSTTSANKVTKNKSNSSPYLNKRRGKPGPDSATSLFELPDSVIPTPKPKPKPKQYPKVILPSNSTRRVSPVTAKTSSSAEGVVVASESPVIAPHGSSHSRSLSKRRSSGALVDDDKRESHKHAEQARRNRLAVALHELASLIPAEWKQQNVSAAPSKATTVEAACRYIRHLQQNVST
# Experiment: relative binding free energy (BET-seq); higher = weaker binding
# Details: reference: library average
row,Sequence,relative binding free energy [kcal/mol]
1,ATCTTCACGTGTATTT,0.17
2,CGTTTCACGTGAAGGG,0.28
3,GAGTCCACGTGTCGGT,0.26
4,AAGTGCACGTGCGGGA,-0.09
5,GTTATCACGTGGGCTT,0.05
6,CGTGTCACGTGGGGGA,-0.11
7,TTGGACACGTGTGGCC,0.12
8,TCGTGCACGTGGTTGA,-0.11
9,CTGGTCACGTGGCTTG,0.01
10,GGATGCACGTGAGGTC,0.2
11,ATATACACGTGTAATT,-0.07
12,AAATGCACGTGGATGT,-0.13
13,CATGGCACGTGAGTGG,0.08
14,ATAGGCACGTGTGAGG,-0.07
15,TATCCCACGTGTTTTT,0.02
16,TCGCGCACGTGTTGTT,-0.18
17,TAGTTCACGTGGCTGA,0.19
18,AGGTCCACGTGTAGGA,0.11
19,AGGTGCACGTGATGTC,0.04
20,CCTGTCACGTGAGGTG,0.3
21,TGCGCCACGTGTAGGG,-0.01
22,GTGTACACGTGGGAAT,0.07
23,ACTTTCACGTGGGGGG,0.13
24,AGTAACACGTGGGTGA,-0.23
25,GTATGCACGTGGCGTG,-0.16

row,Sequence,relative binding free energy [kcal/mol]
1,TGAGGCACGTGCGTTG,-0.22
2,TTAATCACGTGGGATT,0.11
3,ATGTACACGTGCATGG,-0.04
4,ACTGGCACGTGTTATT,-0.07
5,ACGGGCACGTGAGGGT,0.04
6,ATACGCACGTGTTATT,0.09
7,TCGTTCACGTGAGTTT,0.53
8,CAGATCACGTGTTGGG,0.16
9,TGAATCACGTGCTGGT,-0.03
10,TTCGTCACGTGCGGGC,0.12
11,GTTTTCACGTGTCAAA,0.41
12,CGTGCCACGTGAGTGT,0.07
13,GGTCTCACGTGTTAAT,0.29
14,TAGCGCACGTGGCTGG,-0.21
15,TTTCGCACGTGTTAAA,-0.03
16,TCGTTCACGTGATTGT,0.39
17,GGGGACACGTGGAGTA,0.06
18,TTGGTCACGTGGCTGA,0.04
19,TGACGCACGTGGTTGC,-0.05
20,GGATGCACGTGGGCGA,-0.17
21,ATTGTCACGTGAAGCG,0.29
22,GGGAACACGTGTTGGA,0.16
23,GATGTCACGTGCGGAG,0.05
24,TGGCTCACGTGAGTCT,0.41
25,ATTGGCACGTGGTGCT,-0.17

row,Sequence,relative binding free energy [kcal/mol]
1,AGATTCACGTGAGATA,0.42
2,TCATGCACGTGGGGGA,-0.12
3,GGATGCACGTGGGTGC,-0.06
4,TTTTGCACGTGTTAGC,0.03
5,CGTGTCACGTGTGACG,0.03
6,GTGTGCACGTGAGTAT,0.28
7,TTTGACACGTGATGAT,0.15
8,CTGTTCACGTGGGTGC,0.21
9,GCGCGCACGTGGAGGG,-0.23
10,TAATTCACGTGGGTAA,0.01
11,ATTGCCACGTGGTTAT,-0.09
12,GGGTACACGTGGAGGG,-0.01
13,CTAGGCACGTGTAATT,0.15
14,TATTTCACGTGTTGTC,0.27
15,CGTGTCACGTGTACGT,0.07
16,TATTTCACGTGGGGGG,0.15
17,TTTTTCACGTGTGAGT,0.33
18,TGGATCACGTGCGATT,0.14
19,AGTGACACGTGGTTGA,-0.04
20,TTGCACACGTGAATGG,0.29
21,TGAGTCACGTGCAAGG,0.07
22,TGACTCACGTGGGTAT,0.14
23,AAGAGCACGTGGTCGG,-0.33
24,CTTTTCACGTGGGTTT,0.27
25,TTTTACACGTGTTGCT,0.09

row,Sequence,relative binding free energy [kcal/mol]
1,CTGACCACGTGGGGGT,-0.29
2,TTTGGCACGTGGACCT,-0.11
3,CGTGTCACGTGACGGG,0.12
4,AGTAACACGTGGGCGG,-0.16
5,TATTCCACGTGTGGTG,-0.02
6,ATTTGCACGTGGACTG,-0.03
7,TGATACACGTGGTGAA,-0.03
8,GACGGCACGTGCGGTG,-0.09
9,AGCTGCACGTGTTGAG,-0.06
10,GATTGCACGTGAATGG,0.27
11,ATGAACACGTGGCGTG,-0.18
12,GCTGTCACGTGGGGAG,0.03
13,GTTTGCACGTGCAAGG,0.12
14,GTGTACACGTGGGGAG,0.05
15,CTGGGCACGTGAAGGG,0.1
16,ATTGTCACGTGAGGTA,0.26
17,ATGGGCACGTGCTTGG,-0.15
18,TATAGCACGTGTTGAG,-0.11
19,GACTGCACGTGAGGTT,0.2
20,AGTATCACGTGTTTGA,0.06
21,TTTGTCACGTGTATTC,0.16
22,CACGTCACGTGGTGTG,-0.1
23,GCGAACACGTGGTGTT,0.07
24,ATTGCCACGTGTAGTG,-0.16
25,TTGATCACGTGGAGTC,0.22

row,Sequence,relative binding free energy [kcal/mol]
1,TTAGGCACGTGATTGA,0.07
2,GGGGTCACGTGCCCGG,0.13
3,GGATACACGTGTACGT,0.04
4,AGAGACACGTGGGTTA,-0.12
5,TAATTCACGTGATATG,0.3
6,CTATTCACGTGGTTAT,0.23
7,CTTTACACGTGTGGGA,0.07
8,TTGTTCACGTGCGGCG,0.19
9,ATTGTCACGTGGAGCT,-0.07
10,ATAAGCACGTGGTTTA,-0.25
11,AGAGTCACGTGCAGCG,0.18
12,AGTCTCACGTGGAATT,0.46
13,TTTTGCACGTGCGCAT,-0.15
14,GGGCGCACGTGTGTGG,0.05
15,TGTGCCACGTGGCGTG,-0.13
16,TGGATCACGTGAATGC,0.34
17,TGTTACACGTGCGTTA,0.04
18,TGAGGCACGTGTTTAA,-0.08
19,TTGATCACGTGGAAGT,0.24
20,CGGTTCACGTGGGTCT,0.13
21,TTAATCACGTGATCGG,0.21
22,TTAACCACGTGAGGGG,0.2
23,CGAGGCACGTGGTGAT,-0.27
24,TTGTGCACGTGTTGTC,0.03
25,TTGCGCACGTGTTTGT,-0.2

row,Sequence,relative binding free energy [kcal/mol]
1,AGCGGCACGTGGTAGA,-0.13
2,GTGGGCACGTGGCCTG,-0.13
3,TTAGACACGTGAGCGG,0.23
4,CGGGTCACGTGTTAGT,0.15
5,GGGCTCACGTGGCGAG,0.16
6,TCGATCACGTGTTTGC,0.37
7,TGGTACACGTGAAAGG,0.32
8,CTGGGCACGTGTGGGT,-0.09
9,TAGTACACGTGACTGG,0.18
10,CTGGTCACGTGGCAGG,0.12
11,CCGTGCACGTGCGGGG,-0.06
12,GATGACACGTGGTTGC,0.06
13,TAGCGCACGTGAATGG,0.14
14,CGTTGCACGTGCAAGT,0.17
15,TATGGCACGTGGACAT,-0.06
16,CATAGCACGTGAGGTA,0.14
17,TTTTGCACGTGGGCAC,-0.18
18,GCAAGCACGTGTGGGT,0.01
19,TGGATCACGTGGATAT,0.08
20,TTTAGCACGTGATATG,0.11
21,CGTGGCACGTGGGTTT,-0.19
